According to PubChem BioAssay AID1347120 (National Center for Advancing Translational Sciences (NCATS), 2019):
In all, about 390,000 compounds went through this assay and about 930 (0.24%) were called active. The shares of active, inactive and inconclusive entries below differ from those in the screen. Calls come from the whole dose curve; as a rule, active = well fitted activation curve with a large enough effect; inconclusive = small, poorly fitted or top-dose-only effect; inactive = no such curve, though single readings can be large or run the other way. Potencies beside an inconclusive call are fits to weak or partial responses and may not hold up.

Experiment: qHTS for Suppressors of FUS Proteinopathy: Primary screen using FUS-linked yeast assay; note: nearly all actives have a fitted effect of over 55% in size;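 for growth rescue (activation): plate controls were DMSO vehicle for no effect and reference control for full effect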
Settings: S. cerevisiae FUS-expressing, OD600, 24 h; Potency: growth rescue; growth rescue (activation): at 76.6 µM (top of the series)
Procedure, shortened: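 Read-out: OD at 600 nm after 24hr at 30C, reporting rescue of FUS-induced yeast toxicity. Cells at OD 0.005 in galactose (2%) minimal medium; compounds tested in a dilution series; CP55940 titration from 92uM final as control.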
Potency is the fitted concentration of half-maximal effect; tags give direction and shape of the fitted curve.

**Q.** Which Potency does the source give for `O=C(Nc1ccc(Br)cc1)C1CCCN1S(=O)(=O)c1ccc(F)cc1` (stereo unspecified) here?
**A.** Its Potency is “inactive”.

**Q.** For `CCN(CC)S(=O)(=O)c1ccc(NC(=O)c2ccc(Sc3nncn3C)c([N+](=O)[O-])c2)cc1`, which Potency is on record?
**A.** The Potency was inconclusive: 50.1 µM [activator, single point].

**Q.** Which Potency does the source give for `Cc1cc(NC(=O)CN2C(=O)c3cccnc3Sc3ccccc32)ccc1Br` here?
**A.** Its Potency is “inactive”.

**Q.** Which Potency does the source give for `COc1cc(OC)c(C(=O)/C=C/c2ccccc2)c(O)c1O` here?
**A.** Its Potency is “inactive”.

**Q.** With `CCC(C)NC(=O)c1cn(CCOC)c(=O)c2c1c1ccccc1n2C` (stereo unspecified) as the compound, how does the Potency read?
**A.** Its Potency is “inactive”.

**Q.** Which Potency does the source give for `O=C(COC(=O)c1n[nH]c(=O)c2ccccc12)Nc1cccc(S(=O)(=O)N2CCOCC2)c1` here?
**A.** Its Potency is active: 39.8 µM.

**Q.** For `CCCCCc1cc(=O)oc2c(C(CCN3CCN(c4ccccc4)CC3)c3ccc4c(c3)OCO4)c(OC)cc(OC)c12` (stereo unspecified), which Potency is on record?
**A.** The Potency was inconclusive: 28.2 µM [activator, single point].

**Q.** For `Cc1cc(C)c(NC(=O)C(C)n2nnc3sc4c(c3c2=O)CCCC4)c(C)c1` (stereo unspecified), which Potency is on record?
**A.** The Potency was “inactive”.

**Q.** Which growth rescue (activation) does the source give for `O=C(CSc1nnc(-c2ccccc2)o1)Nn1cnnc1` here?
**A.** Its growth rescue (activation) is inconclusive: 56.7% [activator].

**Q.** Which Potency does the source give for `COc1ccc(-c2sc3ccc(OC)cc3c2-c2ccc(OCCN3CCOCC3)cc2)cc1` here?
**A.** Its Potency is inconclusive: 28.2 µM [activator, single point].

**Q.** Which Potency does the source give for `Cc1cc(C)cc(N2C(=O)N(Cc3cccc(F)c3)c3ccccc3S2(=O)=O)c1` here?
**A.** Its Potency is inconclusive: 35.5 µM [activator, single point].

**Q.** For `CC(C)CNC(=O)c1ccccc1NC(=O)c1ccccc1N(C)S(=O)(=O)c1ccccc1`, which Potency is on record?
**A.** Its Potency is inconclusive: 22.4 µM [activator, partial curve].

**Q.** For `Cc1ccc(NC(=O)CN2C(=O)N/C(=C/c3cc(C)n(-c4cccc(C(=O)O)c4)c3C)C2=O)cc1`, which Potency is on record?
**A.** The Potency was inconclusive: 39.8 µM [activator, partial curve, poor fit].

**Q.** With `CCNc1nc(NCC)n2c(SC(C(=O)Nc3cc(C)ccc3C)c3ccccc3)nnc2n1` (stereo unspecified) as the compound, how does the Potency read?
**A.** Its Potency is active: 31.6 µM.

**Q.** Which Potency does the source give for `CCCCCCCCN1C(=O)[C@H](CC(=O)NCc2ccccc2)C[C@@]2(C(=O)OCC)CCC=C12` here?
**A.** Its Potency is inconclusive: 17.8 µM [activator, single point].

**Q.** Which Potency does the source give for `Cc1ccc(/C=N/NC(=O)c2nnn(-c3nonc3N)c2CN(C)c2ccccc2)s1` here?
**A.** The Potency was inconclusive: 15.8 µM [activator, partial curve].

**Q.** For `O=C(Nc1ccc2c(c1)CCCN2C(=O)c1cccs1)c1c(F)cccc1Cl`, which Potency is on record?
**A.** Its Potency is inconclusive: 25.1 µM [activator, single point].

**Q.** Which Potency does the source give for `CCOC(=O)C1CCN(c2nc3c(S(=O)(=O)c4ccc(C)c(C)c4)nnn3c3ccc(Cl)cc23)CC1` here?
**A.** Its Potency is inconclusive: 25.1 µM [activator, partial curve, poor fit].

**Q.** Which Potency does the source give for `COc1ccc(Cn2c(SCC(=O)N(C)Cc3ccccc3)nc3ccccc32)cc1` here?
**A.** The Potency was “inactive”.

**Q.** Which Potency does the source give for `CCCCNC(=O)C1(C)CCN1C(=O)c1ccc2sccc2c1` (stereo unspecified) here?
**A.** Its Potency is “inactive”.

**Q.** Which Potency does the source give for `Cc1nnc(SCC(=O)Nc2ncc3c(n2)CC(C)(C)CC3=O)s1` here?
**A.** Its Potency is inconclusive: 3.98 µM [activator, single point].

**Q.** Which Potency does the source give for `CCCCOCCCNC(=O)C[C@@H]1C[C@@]2(C(=O)OC)CCCCC=C2N(Cc2ccc3c(c2)OCO3)C1=O` here?
**A.** The Potency was inconclusive: 14.1 µM [activator, partial curve].

**Q.** Which Potency does the source give for `O=C(Nc1cnc(N2CCN(c3ccccc3)CC2)c(C(=O)O)c1)c1cccs1` here?
**A.** The Potency was “inactive”.

**Q.** With `Cc1ccc2c(=O)cc(C(=O)Nc3ccc(S(=O)(=O)Nc4ncccn4)cc3)oc2c1C` as the compound, how does the Potency read?
**A.** The Potency was “inactive”.

**Q.** For `C#CCOCCOCCOCCNc1nc(N2CCN(C(=O)CCCCCCCCCCNC(=O)[C@@H](CCSC)n3cc(CCO)nn3)CC2)nc(N2CCN(C(=O)CCCCCCCCCCNC(=O)[C@H](CO)n3cc(CCCCCN)nn3)CC2)n1`, which Potency is on record?
**A.** The Potency was inconclusive: 15.8 µM [activator, partial curve, poor fit].

**Q.** Which Potency does the source give for `CCOC(=O)N1CCN(C(=O)C[C@@H]2C[C@@]3(C(=O)OCC)CCC=C3N(Cc3ccc(Cl)cc3Cl)C2=O)CC1` here?
**A.** Its Potency is inconclusive: 17.8 µM [activator, partial curve, poor fit].

**Q.** With `O=[N+]([O-])c1cccc(/C=C/c2nc[nH]c2[N+](=O)[O-])c1` as the compound, how does the Potency read?
**A.** The Potency was “inactive”.

**Q.** Which Potency does the source give for `CCOC(=O)CSc1nc2c(sc3ccccc32)c(=O)n1CCO` here?
**A.** The Potency was “inactive”.

**Q.** Which Potency does the source give for `O=C1CN(C(=O)c2ccccc2)C(c2ccccc2)c2cc(F)ccc2N1` (stereo unspecified) here?
**A.** The Potency was “inactive”.

**Q.** Which Potency does the source give for `O=c1cc(CN2CCc3ccccc32)nc2sccn12` here?
**A.** Its Potency is inconclusive: 20 µM [activator, partial curve, poor fit].

**Q.** For `C#CCOCCOCCOCCNc1nc(N2CCN(C(=O)CCCCCCCCCCNC(=O)[C@@H](CCC(=O)O)n3cc(CCCCCN)nn3)CC2)nc(N2CCN(C(=O)CCCCCCCCCCNC(=O)[C@H](CCCCN)n3cc(C[C@@H](C)CC)nn3)CC2)n1`, which Potency is on record?
**A.** Its Potency is inconclusive: 11.2 µM [activator, partial curve, poor fit].

**Q.** Which Potency does the source give for `Cc1onc(-c2ccccc2Cl)c1C(=O)Nc1nnc(-c2cccc([N+](=O)[O-])c2)s1` here?
**A.** The Potency was inconclusive: 35.5 µM [activator, single point].

**Q.** For `COc1ccccc1NS(=O)(=O)c1cc(NC(=O)c2cc(=O)[nH]c3ccccc23)ccc1N1CCOCC1`, which Potency is on record?
**A.** The Potency was inconclusive: 39.8 µM [activator, single point].

**Q.** Which Potency does the source give for `Cc1ccc(CCNc2ncnc3onc(-c4ccc(Cl)cc4)c23)cc1` here?
**A.** Its Potency is “inactive”.

**Q.** Which Potency does the source give for `CCOc1ccc(C(=O)NC(=S)Nc2ccccc2N2CCCCC2)cc1[N+](=O)[O-]` here?
**A.** The Potency was “inactive”.

**Q.** With `COc1ccc(CNC(=O)CN2C(=O)CSc3ccc(S(=O)(=O)N4CCC(C)CC4)cc32)cc1` as the compound, how does the Potency read?
**A.** Its Potency is inconclusive: 50.1 µM [activator, single point].

**Q.** Which Potency does the source give for `c1ccc(-n2c(SCC3CCCCO3)nnc2-c2cccs2)cc1` (stereo unspecified) here?
**A.** The Potency was inconclusive: 31.6 µM [activator, partial curve, poor fit].

**Q.** For `Cc1csc(NC(=O)CSc2ccc([N+](=O)[O-])cn2)n1`, which Potency is on record?
**A.** Its Potency is “inactive”.

**Q.** For `COc1ccc(NC(=O)CSc2nc3c(oc4ccccc43)c(=O)n2Cc2ccco2)cc1Cl`, which Potency is on record?
**A.** The Potency was “inactive”.

**Q.** For `COc1ccc([C@@H]2CC=C(C(=O)O)[C@H](c3ccc(C(C)(C)C)cc3)N2S(=O)(=O)c2ccc(C)cc2)cc1OC`, which Potency is on record?
**A.** Its Potency is inconclusive: 17.8 µM [activator, partial curve, poor fit].

**Q.** With `C[C@@H](CSc1ccccc1)CN1CC[C@H](NC(=O)OCc2ccccc2)CCC1=O` as the compound, how does the Potency read?
**A.** Its Potency is inconclusive: 28.2 µM [activator, partial curve].

**Q.** With `COc1ccc(/C=C2\Oc3cc(OCC(=O)N4CCC[C@H]4CO)ccc3C2=O)c(OC)c1` as the compound, how does the Potency read?
**A.** Its Potency is inconclusive: 31.6 µM [activator, single point].

**Q.** For `C=CCC[C@@H](Cc1ccc(F)cc1)C(=O)OC[C@H]1CCCN1C(=O)[C@@H](CC=C)CC(=O)N[C@H](CO)Cc1ccccc1`, which Potency is on record?
**A.** The Potency was inconclusive: 28.2 µM [activator, single point].

**Q.** Which Potency does the source give for `Nc1nnc(SCc2cccc(C(F)(F)F)c2)s1` here?
**A.** Its Potency is “inactive”.

**Q.** For `O=C(Nc1cc(C(F)(F)F)ccc1N1CCCC1)c1ccc2c(c1)OCO2`, which Potency is on record?
**A.** The Potency was “inactive”.

**Q.** Which Potency does the source give for `CCOC(=O)[C@H]1[C@H]2COc3ccccc3[C@@H]2N2C(=O)c3c(C)cc(C)cc3NC(=O)[C@@]12C` here?
**A.** The Potency was inconclusive: 28.2 µM [activator, partial curve].

**Q.** Which Potency does the source give for `CCOCCCN1C(=O)c2ccccc2CC1(C)C(=O)NC1CCCCC1` (stereo unspecified) here?
**A.** The Potency was “inactive”.

**Q.** Which Potency does the source give for `CCNC(=S)/N=C(\N)Nc1nc(C)c2cc(C)ccc2n1` here?
**A.** Its Potency is inconclusive: 50.1 µM [activator, single point].

**Q.** Which Potency does the source give for `CS(=O)(=O)c1ccc(Cl)c(NC(=O)C2CCCN(C(=O)c3ccc(Cl)cc3)C2)c1` (stereo unspecified) here?
**A.** Its Potency is inconclusive: 50.1 µM [activator, single point].

**Q.** With `Cc1nnc(C)c2c(C)n(-c3ccc(Cl)c(N)c3)c(C)c12` as the compound, how does the Potency read?
**A.** Its Potency is inconclusive: 31.6 µM [activator, single point].

**Q.** Which Potency does the source give for `CC1(c2ccc3c(c2)OCCO3)NC(=O)N(CC(=O)c2ccc[nH]2)C1=O` (stereo unspecified) here?
**A.** The Potency was inconclusive: 28.2 µM [activator, single point].

**Q.** For `O=C1NC[C@H](Cc2ccccc2)N(C[C@@H]2CCCN2C[C@H](Cc2ccccc2)N2C[C@H](Cc3ccc(O)cc3)N(CCc3ccccc3)C(=O)C2=O)C1=O`, which Potency is on record?
**A.** The Potency was inconclusive: 10 µM [activator, full curve].

**Q.** With `CCOC(=O)N1CCC(NC(=O)c2cnn3c(C(F)(F)F)cc(-c4cccc(OC)c4)nc23)CC1` as the compound, how does the growth rescue (activation) read?
**A.** The growth rescue (activation) was inconclusive: 63.1% [activator].

**Q.** For `CN(C)S(=O)(=O)c1ccc(C(=O)NCCSc2c(-c3ccccc3)[nH]c3ccccc23)cc1`, which Potency is on record?
**A.** The Potency was inconclusive: 12.6 µM [activator, partial curve].

**Q.** With `CCOC(=O)c1cc(C)n(CC2CCC(C(=O)Nc3ccccc3OC)CC2)c1C` (stereo unspecified) as the compound, how does the Potency read?
**A.** Its Potency is inconclusive: 35.5 µM [activator, single point].

**Q.** Which Potency does the source give for `O=C(O)CN1C(=O)CCS(=O)c2ccccc21` (stereo unspecified) here?
**A.** The Potency was “inactive”.

**Q.** With `O=C(COc1ccc(F)cc1Cl)Nc1cccc(S(=O)(=O)N2CCCC2)c1` as the compound, how does the Potency read?
**A.** The Potency was “inactive”.

**Q.** With `C=CC[C@H](CC(=O)N(CCO)Cc1ccccc1)C(=O)NC[C@@H](OC(=O)[C@@H](CC=C)Cc1ccc(F)cc1)c1ccccc1` as the compound, how does the Potency read?
**A.** The Potency was inconclusive: 15.8 µM [activator, partial curve, poor fit].

**Q.** With `NC(=O)c1ccc(NC(=O)COC(=O)c2c3c(nc4ccccc24)/C(=C\c2ccc4c(c2)OCO4)CCC3)cc1` as the compound, how does the Potency read?
**A.** Its Potency is inconclusive: 39.8 µM [activator, single point].

**Q.** Which Potency does the source give for `O=C1N(Cc2ccccc2Cl)c2ccccc2C1(O)c1c[nH]c2ccccc12` (stereo unspecified) here?
**A.** The Potency was inconclusive: 17.8 µM [activator, partial curve, poor fit].

**Q.** Which Potency does the source give for `CC1=C(C(=O)OCC2CCCCC2)C(c2ccc(Cl)cc2)CC(=O)N1` (stereo unspecified) here?
**A.** The Potency was “inactive”.
